Values marked as one replicate rest on one cluster of the flow cell; about a third of the high ones do not repeat.
Test system: ATP
Experiment: switch fluorescence ratio, 500 uM ATP over buffer (Cy3 cluster intensity, sum of 5 cycles each) (fold (ratio)); higher = stronger signal-on switching upon ATP binding; sequences stand for … in TCGTCGGCAGCGTCAGATGTGTATAAGAGACAGTTTTTTTTTTTTTTTTTTTTTTTTT…TC
Conditions: aptamer strand: ATP DNA aptamer (quencher-CACCTGGGGGAGTATTGCGGAGGAAGG + anchor), 100 nM annealed; ATP concentration: 500 uM; one replicate
Procedure, shortened: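 Five buffer/ATP imaging cycles were run on Cy3-labelled switching-strand clusters on a modified Illumina MiSeq flow-cell, with NaOH stripping and re-annealing between cycles. In each cycle, clusters annealed to 100 nM quencher-labelled ATP aptamer were imaged in selection buffer, then after 15 min with 500 uM ATP at 22 °C. Per cluster, the fluorescence ratio is summed target-cycle over summed buffer-cycle Cy3 intensity, averaged per switch-domain sequence. Only clusters within 100-1000 RFU were kept.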
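Note: ATP exposure 15 min at 22 °C before imaging.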

Sequence	switch fluorescence ratio
GGACCTAGCT	1.03
AGGTTGTCAG	0.991
TTTGGTCCAT	1.01
AGGTAGGACA	0.979
ATTTTTCCGC	1.04
AGCTATGCGG	0.93
TGCATATTCC	1.08
GTTTTAATCG	1
CGGGTATAGA	1.09
TATACAATTA	1.01
ATACGGGTGG	1.09
CGCGCCGACC	1.18
GGCACAGCTG	1.04
TGTTTAAAGT	0.992
ATTTAGTCAT	0.988
TAGATCCCGC	0.982
TTTAGATGAT	0.981
TCATTTTAGA	0.995
TGGGTGCAAG	0.969
AAGTTGTTTG	0.943
GGAGCAGGG	1.03
ACGAAAGGCC	1.03
AGGCTTATGC	0.986
GTGATTTGTG	1.05
CCAGGGAACC	1.01

Sequence	switch fluorescence ratio
AAAGGTATTG	1.04
ATGAGGGCAA	1.2
AGCAATCCGG	1.49
GGTATAAGCC	0.972
AGGTATGCGC	0.974
ACCGGACGTC	1.13
GGGTGCTTAG	1.06
GCCCAAATAG	1.04
AATGTGTCCT	1.05
TTTGACCGGT	0.985
TTCCTGCTTT	1.2
GGGACTGCAA	1.56
GAGACAGTCA	1
TGATCTTCA	1.02
ACTCAGATTA	1.06
AACTCTACC	1.21
TTATCACCGA	1.04
TTTGTGACAC	1.07
CTTTTTGCAC	0.988
GGCAATTGAG	1.06
AAGTCCAAAT	0.961
GCATTATGCT	0.997
ATCGTCCAGG	1.99
TGAGCGCTGG	1.02
ACCGCCCCCT	1.39

Sequence	switch fluorescence ratio
TGTTTTTA	0.998
GGTGGACGTT	0.968
CCGTAATAGA	2.9
CGCAAGGAGT	1
AGCGCCGTAT	1.04
GATAGGTCGG	0.989
GTGTGATCGA	1.11
GTCATTGGGC	0.976
GGATATGATA	0.988
TGATGATACG	0.989
CTCGTTCCTA	0.989
CAACGCTCGG	1.04
CAGAGCCAGT	0.972
GTCATGCGTC	1.03
TTTAAATGCT	1.03
GTTATGGTGT	0.961
TAATTAACCA	0.961
TTAGTTTGGC	1.05
TCGGAGTGAA	1.01
TAAGGTATAG	1.01
ATAATTACGG	1.04
GAAGTGTGCT	1.02
GGCCGTGTCC	0.957
CAGTCCTCTG	1
TCCCTCCGGC	1.11

Sequence	switch fluorescence ratio
GGGACCTGCG	1.02
GTATACCGGG	0.974
TATGAGGCTA	1
TTGGCCACTT	1
CAGCCCAAAT	1.01
TTATGTACAA	0.956
CATAATGGTT	1.04
TTGCTAAATT	1.03
ACCAGTATGG	0.979
TAAGGGTGTT	1.04
GGGAGATATA	1.06
AACTAAATGG	0.918
GATTTCCGGA	0.994
GACATAGATT	0.999
AAGGCAGCTC	1.03
GCTTTGCTGA	0.987
GACGCGTTTG	1.02
GCTACAGATG	1.03
GGGCGCTCGG	0.974
GTATTAAAAT	1.01
CTTAAAAGTT	0.998
GAGACGTAAA	1.03
ATGGAAGTAG	1.07
TTGACTGCGA	1.1
GCATGCTAGA	1.02

Sequence	switch fluorescence ratio
TGGACAAGCA	1.01
ATCTAAGAAT	0.955
TGACTTAGGC	1.01
GTGCCGGGCA	0.981
GGGCATGTTC	1.02
TAATGTGGCA	1.02
AGGTTGTAAG	0.979
ATCTCATATG	1
GCGCAGACGG	1.04
AGACAGCTAG	1.05
GTCGTCTCTT	1.01
AGGGCATTTT	1.1
ATTTACCCTA	1.05
CGTTTCCCG	0.966
GCGTTATAAT	0.999
TAATTGTTGA	1.01
TGATCCGGAC	0.991
CAATTCTGTT	1.02
GTAATCTTGT	1.02
AGTCCAAGT	0.983
ACCTGTGGCG	1.09
GTGATGCGGG	0.987
CGTGAGTTTA	0.983
CCTGAAGGAA	1.04
CACAGAGTGT	1.04

Sequence	switch fluorescence ratio
CTGTGGTGT	1.02
GAGTCCCACT	1.04
GTAGCAGGGA	1.15
TAGAGTGAGA	1.03
GTCAGAATAG	0.979
GAGTAGAGAA	1.04
GACGGTTAGT	1
ACGTTATCCG	1.03
ACAAATAGGT	1
CCGGACGGGG	1.06
GCTCTAACAT	1.05
CGCAATAACT	1.76
TAGACTATTT	0.987
TGTTTCACAT	0.996
TGTCGCGAA	1
GAGCATAGGT	1.04
CCTACGGGTA	2.17
ATTAAACTCG	0.909
TTGGCCCTGT	0.993
TAGTGCATTA	1.05
ATTTAGGTAC	1.03
ACCGGACTAT	1.21
AACAGGGTAT	0.991
GGGACAAGTG	0.974
ACGACGAGGA	1.13

Sequence	switch fluorescence ratio
TCGTGGCAGT	1.03
CACACAAGCC	1.09
CCACTCGAAA	1.28
TACACGGGGA	1.01
TTATACCCCT	1.09
TTACAAGTAG	1
TGCCATTTAG	0.971
TCTGTAGTTC	1.12
GAAAATGGGT	0.922
TGGCCGGTAC	1.15
CATCGAGTAA	1.05
GCGTAGTTGT	0.971
ATGAGCCACG	0.958
CTGAGGGATT	0.986
ACAATATTTC	1.05
TCGCCCCGTG	1.11
AGGGTATTG	0.969
GCCGTAGGTC	0.988
TTTATGACGG	0.983
TGGGTCC	1.03
CGTTCTGACC	1.09
AGGCGGGATT	1.04
TAGCTCCTAG	1.04
GCCGATCTAC	1.05
AGGTAATGTA	0.993

Sequence	switch fluorescence ratio
TATTGATGG	0.988
ACCCGGAGTA	1.11
GGCTACGTCG	1.03
ATATCTGGTT	1.01
ACAATCTCGA	0.98
AGGCGTTGG	0.956
ACGAATTGG	1
ACTGCGTCCC	1.08
GACAGAACCT	1.73
TGCGTTTTGG	1.03
ACAGCAACCA	1.38
CGTTGAAGAA	1.03
TAACCCATGG	1.01
CGGTCAACGA	0.991
GTGGTGTGGG	1.02
CACTAAAACC	1.06
CAAAGTGCTA	1.02
GAACGTGATG	1.01
TCTAGTAGTT	1.01
TTGGATCGAG	0.996
GTGCATAGGA	1.03
ATTCGCTCGT	0.973
ACTAAGCCAG	1.05
CTTGAATGT	0.966
GTACGTGGCT	0.987
